Experimental data taken from the supplement of paper PMC8728848.
This is one part of the list.

Tests used:
Test in all cases: glycan array binding signal (z-score within array); higher = stronger binding
Details in all cases: glycan notation: IUPAC condensed, linker removed
[1] = target: Gal3S(b1-4)Glc
Outline: (§1)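 Glycan array data were curated from 3228 arrays in the Consortium for Functional Glycomics database and kept only where the protein sequence was available. Glycan names were converted to IUPAC-condensed notation, and columns mapping to the same glycan were averaged. The binding signal is a within-array Z-score, averaged across arrays of the same protein sequence at different concentrations or buffers and across linkers. Negative Z-scores can be read as non-binding.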

[2] = target: Gal3S(b1-4)Glc6S
Outline: as §1

[3] = target: Gal3S(b1-4)GlcNAc
Outline: as §1

[4] = target: Gal3S(b1-4)[Fuc(a1-3)]Glc6S
Outline: as §1

[5] = target: Gal3S(b1-4)[Fuc(a1-3)]GlcNAc
Outline: as §1

[6] = target: Gal3S(b1-4)[Fuc(a1-3)]GlcNAc6S
Outline: as §1

[7] = target: Gal3S4S(b1-4)GlcNAc
Outline: as §1

[8] = target: Gal3S6S(b1-4)GlcNAc
Outline: as §1

[9] = target: Gal3S6S(b1-4)GlcNAc6S
Outline: as §1

[10] = target: Gal4S(b1-4)GlcNAc
Outline: as §1

[11] = target: Gal4S6S(b1-4)GlcNAc
Outline: as §1

[12] = target: Gal6P(b1-4)GlcNAc
Outline: as §1

[13] = target: Gal6S(b1-3)GlcNAc
Outline: as §1

[14] = target: Gal6S(b1-3)GlcNAc6S
Outline: as §1

[15] = target: Gal6S(b1-4)Glc
Outline: as §1

[16] = target: Gal6S(b1-4)Glc6S
Outline: as §1

[17] = target: Gal6S(b1-4)GlcNAc
Outline: as §1

[18] = target: Gal6S(b1-4)GlcNAc6S
Outline: as §1

[19] = target: GalNAc(a1-3)Gal
Outline: as §1

[20] = target: GalNAc(a1-3)GalNAc
Outline: as §1

[21] = target: GalNAc(a1-3)GalNAc(b1-3)Gal(a1-4)Gal(b1-4)Glc
Outline: as §1

[22] = target: GalNAc(a1-3)GalNAc(b1-3)Gal(a1-4)Gal(b1-4)GlcNAc
Outline: as §1

[23] = target: GalNAc(b1-3)Gal
Outline: as §1

[24] = target: GalNAc(b1-3)Gal(a1-4)Gal(b1-4)GlcNAc
Outline: as §1

[25] = target: GalNAc(b1-3)Gal(a1-4)Gal(b1-4)GlcNAc(b1-3)Gal(b1-4)Glc
Outline: as §1

[26] = target: GalNAc(b1-3)Gal(a1-6)Gal(b1-4)Glc
Outline: as §1

[27] = target: GalNAc(b1-3)GalNAc
Outline: as §1

[28] = target: GalNAc(b1-3)GlcNAc
Outline: as §1

[29] = target: GalNAc(b1-4)Gal(b1-4)Glc
Outline: as §1

[30] = target: GalNAc(b1-4)GlcNAc
Outline: as §1

[31] = target: GalNAc(b1-4)GlcNAc(b1-2)Man
Outline: as §1

[32] = target: GalNAc(b1-4)GlcNAc(b1-2)Man(a1-3)[GalNAc(b1-4)GlcNAc(b1-2)Man(a1-6)]Man(b1-4)GlcNAc(b1-4)GlcNAc
Outline: as §1

[33] = target: GalNAc(b1-4)GlcNAc(b1-3)GalNAc(b1-4)GlcNAc
Outline: as §1

[34] = target: GalNAc(b1-4)GlcNAc6S
Outline: as §1

[35] = target: GalNAc(b1-6)GalNAc
Outline: as §1

[36] = target: GalNAc3S(b1-4)GlcNAc
Outline: as §1

[37] = target: GalNAc3S(b1-4)GlcNAc3S
Outline: as §1

[38] = target: GalNAc3S(b1-4)[Fuc(a1-3)]GlcNAc
Outline: as §1

[39] = target: GalNAc4S6S(b1-4)GlcNAc
Outline: as §1

[40] = target: GalNAc6S(b1-4)GlcNAc
Outline: as §1

[41] = target: Glc(a1-4)Glc
Outline: as §1

[42] = target: Glc(a1-4)Glc(a1-4)Glc(a1-4)Glc
Outline: as §1

[43] = target: Glc(a1-6)Glc(a1-6)Glc
Outline: as §1

[44] = target: Glc(a1-6)Glc(a1-6)Glc(a1-6)Glc
Outline: as §1

[45] = target: Glc(b1-4)Glc
Outline: as §1

B1: PfulAvr4 (Pseudocercospora fuligena) (protein)
chain: HHHHHHDYKDDDDKTYVQDKTPAFVCPAADIKTTKCLGPKDCLYPSPKTCNGYIQCSPADDSYLTGIIHEMPCPSGLLWNDNKKWCDWPENTTCGLVKSAGATEVDATKQGPTPGKYHG
glycan array binding signal (z-score) [1]: -0.152
glycan array binding signal (z-score) [2]: -0.114
glycan array binding signal (z-score) [3]: -0.093
glycan array binding signal (z-score) [4]: -0.113
glycan array binding signal (z-score) [5]: -0.11
glycan array binding signal (z-score) [6]: -0.055
glycan array binding signal (z-score) [7]: -0.138
glycan array binding signal (z-score) [8]: 0.034
glycan array binding signal (z-score) [9]: -0.111
glycan array binding signal (z-score) [10]: -0.068
glycan array binding signal (z-score) [11]: -0.087
glycan array binding signal (z-score) [12]: -0.126
glycan array binding signal (z-score) [13]: -0.137
glycan array binding signal (z-score) [14]: -0.117
glycan array binding signal (z-score) [15]: -0.077
glycan array binding signal (z-score) [16]: 0.01
glycan array binding signal (z-score) [17]: -0.128
glycan array binding signal (z-score) [18]: -0.144
glycan array binding signal (z-score) [19]: -0.066
glycan array binding signal (z-score) [20]: -0.075
glycan array binding signal (z-score) [21]: -0.154
glycan array binding signal (z-score) [22]: -0.078
glycan array binding signal (z-score) [23]: -0.145
glycan array binding signal (z-score) [24]: -0.132
glycan array binding signal (z-score) [25]: 0.013
glycan array binding signal (z-score) [26]: -0.171
glycan array binding signal (z-score) [27]: -0.101
glycan array binding signal (z-score) [28]: -0.163
glycan array binding signal (z-score) [29]: 0.004
glycan array binding signal (z-score) [30]: -0.093
glycan array binding signal (z-score) [31]: -0.111
glycan array binding signal (z-score) [32]: -0.08
glycan array binding signal (z-score) [33]: -0.127
glycan array binding signal (z-score) [34]: -0.154
glycan array binding signal (z-score) [35]: -0.13
glycan array binding signal (z-score) [36]: -0.109
glycan array binding signal (z-score) [37]: -0.087
glycan array binding signal (z-score) [38]: -0.134
glycan array binding signal (z-score) [39]: -0.127
glycan array binding signal (z-score) [40]: -0.125
glycan array binding signal (z-score) [41]: -0.031
glycan array binding signal (z-score) [42]: -0.017
glycan array binding signal (z-score) [43]: -0.134
glycan array binding signal (z-score) [44]: -0.021
glycan array binding signal (z-score) [45]: -0.043
